These results are taken from ChEMBL document CHEMBL4888484, “Replenishing the malaria drug discovery pipeline: Screening and hit evaluation of the MMV Hit Generation Library 1 (HGL1) against asexual blood stage Plasmodium falciparum ,using a nano luciferase reporter read-out” (2022).

SMILES strings stand for the structures. The campaign covered roughly 150,000 compounds. About 540 (0.36%) showed an effect of 50% or more. Some of the results follow.

The assay has as its system Plasmodium falciparum. Put plainly: Primary screen in NF54 nanoGlo assay, in single point, at 2uM, 72h; a lower Z score goes with more inhibition. The assay is classed as functional, Erythrocyte. The following applies: timepoint 72 hour.
Take `CC(C)N(C(=O)COC(=O)c1cnc(-c2ccncc2)s1)C(C)C`: the “% Inhibition” value is reported as -8% and the Z score was found to be 1.31.

For the molecule `CC1(C)NC(=O)N(CCCN2CCCc3cc(OC(F)(F)F)ccc32)C1=O`, the “% Inhibition” value was -2% and the Z score was determined as 0.23.

For `O=C(c1ccco1)N1CCC(C(=O)N2CCCCCCC2)CC1`, the “% Inhibition” value is given as -6% and the Z score was 1.1.

Regarding `CC(C)Cc1ccc(C(=O)NCc2ccc3c(c2)OCO3)o1`, the “% Inhibition” value was -11% and the Z score was 1.87.

Consider `CCn1ccnc1CNC(=O)NC1CCCC2OCCC12` (stereo not drawn), for which the “% Inhibition” value was -5% and the Z score was found to be 0.59.

For the molecule `CC(C)(CO)NS(=O)(=O)c1c(Br)cc(F)cc1Br`, the “% Inhibition” value is given as -11% and the Z score came out at 1.71.

As for `O=C(c1ccc(F)cc1)N1CCC2(CC1)N(Cc1cccc(F)c1)C(=O)C[S@+]2[O-]`, the “% Inhibition” value is recorded as -4% and the Z score was 0.71.

As for `CC1CCCC2(C1)OCC(C(=O)N1CCN(C)CC1)N2C(=O)c1ccccc1F` (stereo not drawn), the “% Inhibition” value was -11% and the Z score is given as 1.51.

Regarding `CC(C)N(CC(N)=O)Cc1ccccc1Br`, the “% Inhibition” value is -5% and the Z score was 0.52.

On to `O=C(c1cc2ccccc2[nH]1)N1CCc2[nH]cnc2C1`, for which the “% Inhibition” value is listed as -5% and the Z score stood at 0.95.

Take `CCn1c(=O)c(N2CCN(C(=O)COc3ccc(Cl)cc3C)CC2)nc2ccncc21`: the “% Inhibition” value is reported as -17% and the Z score came to 1.62.

Regarding `COc1ccc(-c2ccc(=O)n(CN3CCN(Cc4ccccc4)CC3)n2)cc1OC`, the “% Inhibition” value worked out at 7% and the Z score was -0.84.

On to `CCOc1ccc(Cl)cc1-c1cc(C)n[nH]c1=O`, for which the “% Inhibition” value is recorded as -8% and the Z score turned out to be 1.52.

Regarding `O=C1C2ON=C(c3cccnc3)C2C(=O)N1c1cc(Cl)cc(Cl)c1` (stereo not drawn), the “% Inhibition” value is reported as 2% and the Z score was -0.28.

Turning to `O=C(Nc1nccs1)N1CC(O)CC1CO` (stereo not drawn), the “% Inhibition” value is 34% and the Z score is on record as -4.86.

`O=C(Nc1ccccc1F)c1oc2ccccc2c1NC(=O)c1cccc2ccccc12`: the “% Inhibition” value is on record as -3% and the Z score turned out to be 0.5.

On to `CCC[C@@H](C(=O)N1CC2(CCOCC2)C1)c1ccccn1`, for which the “% Inhibition” value is reported as -23% and the Z score was 2.5.

As to `O=S1(=O)N=C(NCCNC2=NS(=O)(=O)c3ccccc32)c2ccccc21`, the “% Inhibition” value is listed as 35% and the Z score is on record as -3.99.

Take `CCC(=O)NCCc1csc(C2CCN(C(=O)c3ccc4ccccc4n3)CC2)n1`: the “% Inhibition” value is reported as -2% and the Z score is reported as 0.2.

Regarding `Cc1cnc(-n2ncc(C(=O)N3CCN(C4CCCCC4)CC3)c2C2CC2)nc1-c1cccs1`, the “% Inhibition” value is given as -4% and the Z score is given as 0.86.

`Cc1nc2ncc(-c3cccc(N(C)C)c3)cc2[nH]1`: the “% Inhibition” value is -17% and the Z score came to 1.53.

With `CC1CC(C)CN(S(=O)(=O)NC2CN(C(=O)OC(C)(C)C)C2)C1` (stereo not drawn), the “% Inhibition” value is on record as -15% and the Z score is given as 1.45.

Take `COCC1(CNC(=O)C2(C)CCN(C)CC2)CCCC1`: the “% Inhibition” value is on record as -10% and the Z score worked out at 1.75.

In the case of `O=C(Nc1ccc(CCc2nc3ccccc3[nH]2)cc1)c1ccccc1`, the “% Inhibition” value is recorded as -17% and the Z score is on record as 1.72.
